Measurements reported in PubChem BioAssay AID1745853 (National Center for Advancing Translational Sciences (NCATS), 2022).
Several values for one entry are separate records, joined by “and”; a condition that tells them apart may be missing. Identical values can stand only once. Some of the results follow. The main result of the screen is listed elsewhere. These columns were measured beside it and carry no call. Peptide text beside a SMILES is read from it. * marks the point of attachment. Hexanoyl = CCCCCC(=O)*

Experiments:
Test in all cases: Primary Screen for Target Class Profiling of Small Molecule Inhibitors of Methyltransferases
[1] = target: Glycine N-methyltransferase (Homo sapiens) (UniProt Q14749); conditions: purified enzyme, MTase-Glo SAH luminescence; measured here: GNMT inhibition; at 40 µM; stronger effect = lower value
Method in brief: (§1)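 Each enzyme was assayed with SAM and its substrate. SAH formation detected by MTase-Glo luminescence; single-point 40 uM screen[…].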

[2] = target: Guanidinoacetate N-methyltransferase (Homo sapiens) (UniProt Q14353); conditions: purified enzyme, MTase-Glo SAH luminescence; measured here: GAMT inhibition; at 40 µM; stronger effect = lower value
Method in brief: as §1

[3] = target: Histamine N-methyltransferase (Homo sapiens) (UniProt P50135); conditions: purified enzyme, MTase-Glo SAH luminescence; measured here: HNMT inhibition; at 40 µM; stronger effect = lower value
Method in brief: as §1

[4] = target: Nicotinamide N-methyltransferase (Homo sapiens) (UniProt P40261); conditions: purified enzyme, MTase-Glo SAH luminescence; measured here: NNMT inhibition; at 40 µM; stronger effect = lower value
Method in brief: as §1

[5] = target: Phenylethanolamine N-methyltransferase (Homo sapiens) (UniProt P11086); conditions: purified enzyme, MTase-Glo SAH luminescence; measured here: PNMT inhibition; at 40 µM; stronger effect = lower value
Method in brief: as §1
% is scaled to controls: 0 for no effect and ±100 for the full control effect.

Structure (SMILES)	activity change, negative = inhibition [1]	activity change, negative = inhibition [2]	activity change, negative = inhibition [3]	activity change, negative = inhibition [4]	activity change, negative = inhibition [5]
O=S(=O)(Cc1ccccc1)N1CCCC(Cc2noc(-c3cccnc3)n2)C1 (stereo not drawn)	-4.63%	-6.46%	-1.94%	-5.26%	-3.57%
Cc1ccc(Cl)cc1N1CCN(S(=O)(=O)c2ccc3[nH]c(=O)[nH]c3c2)CC1	15.6%	0.578%	10.9%	2.56%	7.74%
Cc1nc(NCCn2ncc3ccccc3c2=O)cc(C2CC(O)C2)n1 (stereo not drawn)	-3.6%	-1.93%	-1.17%	-7.24%	-0.194%
O=C(Nc1ccc(OC(F)(F)F)cc1)c1sccc1NCc1ccnc2ccccc12	-9.08%	-3.15%	1.55%	-25.1%	-13.5%
O=C(Cn1nc2n(CCc3ccccc3)c(=O)c3ccccc3n2c1=O)Nc1ccc(F)cc1	8.68%	1.98%	11.4%	9.5%	8.76%
CC(C)(O)c1ccc2c(c1)C(O)C[C@H]1[C@](C)(C(=O)O)CCC[C@]21C (stereo partly drawn)	0.95%	2.04%	6.41%	-6.68%	-1.05%
CN1C(=O)c2cc(C(=O)NCCN3CCOCC3)nn2CC1(C)C(=O)NC1CCCCCC1 (stereo not drawn)	6.5%	0%	6.25%	3.19%	2.5%
COc1cc(/C=C/C(=O)N2CCN(CC(=O)N3CCCC3)CC2)cc(OC)c1OC	2.18%	-1.67%	0.94%	-10.9%	-2.58%
CC(C)C1c2cccn2CCN1C(=O)Nc1cc(F)ccc1F (stereo not drawn)	4.32%	1.04%	-0.406%	0.672%	2.15%
CCCCCC(=O)N1CCC[C@H]1C(=O)N[C@@H](Cc1ccc(O)cc1)C(=O)OC (Hexanoyl-Pro-Tyr-OMe)	-7.42%	-15.4%	-2.31%	-18.6%	-13.1%
Cc1cccc(CNC(=O)C2(C)Cn3cnc(C(=O)N4CCCC4)c3C(=O)N2C2CC2)c1 (stereo not drawn)	4.39%	0.97%	4.19%	2.15%	3.89%
COC(=O)[C@H](O)[C@H]1C(C)(C)[C@H](OC(=O)C(C)C)[C@@]2(O)C(=O)[C@]1(C)C1CC[C@]3(C)C(CC(=O)O[C@H]3c3ccoc3)[C@]13O[C@@H]32 (stereo partly drawn)	0%	-7.95%	1.3%	-20%	1.05%
C/C=C1/[C@H](O[C@@H]2O[C@H](CO)[C@@H](O)[C@H](O)[C@H]2O)OC=C(C(=O)OC)[C@H]1CC(=O)OCCc1ccc(O)c(O)c1	-2.37%	-2.72% and 8.85%	7.34%	-16.3% and -8.62%	-12.8% and 0.127%
CC1(C(=O)NC2CCCCC2)Cn2nc(-c3ccco3)cc2C(=O)N1Cc1ccc(F)cc1 (stereo not drawn)	-13.7%	-11.9%	-5.28%	-14.2%	-9.42%
Cc1ncsc1CN(Cc1ccccc1)C(=O)c1cn(CCC2CCCCC2)nn1	-5.98%	4.03%	-0.883%	-14.9%	6.21%
CC(C)OCCCNC(=O)c1cc2n(n1)CC(C)(C(=O)NC1CCCCC1)N(C)C2=O (stereo not drawn)	8.11%	5.86%	5.28%	5.79%	1.36%
COc1cccc(CNC(=O)c2sc(=S)n3c2[nH]c(=O)c2cc4c(cc23)OCO4)c1	-40.5%	3.1%	3.62%	-42.9%	-31.3%
CN1C[C@@H](NC(=O)Nc2ccccc2)C[C@H]1c1nc(Cc2ccccc2)no1	-2.71%	-0.596%	-2.58%	-2.05%	-1.16%
CCCC1c2ccc(C)n2CCN1C(=O)Nc1ccc(Br)cc1F (stereo not drawn)	-2.53%	3.13%	-12.4%	-2.87%	-5.16%
CC(C)NS(=O)(=O)c1ccc2c(c1)nc(-c1cc(C(C)(C)C)[nH]n1)n2C(C)C	-4.09%	0.742%	-0.204%	-4.44%	-2.21%
COc1ccc(NC(=O)/C=C/c2ccc(Cl)cc2)cc1	-9.66%	1.01%	-4.31%	-54.5%	-4.69%
Cc1nn(CCO)cc1-c1c(-c2ccccc2)ncn1CC(=O)O	-4.08%	-5.76%	-2.58%	-5.44%	-7.82%
COc1cc(OC)cc(-c2ccc3c(-c4ccc(F)cc4)[nH]nc3n2)c1	-2.5%	-4.08%	7.47%	-15.2%	1.3%
CNC(=O)c1cc2c(cn1)[nH]c1ccccc12	-9.46%	1.71%	-6.49%	-11.7%	1.57%
COc1cccc(-c2ccc(NC(=O)C3=C(C(=O)O)CCC3)c(F)c2)c1	-12.3%	-0.684%	4.52%	-18.4%	-0.773%
CCC(C)C(=O)O[C@H]1[C@H](O)[C@@]2(COC(C)=O)C(CC1(C)C)C1=CCC3[C@@]4(C)CC[C@H](O[C@@H]5O[C@H](C(=O)O)[C@@H](O)[C@H](O)[C@H]5O)[C@@](C)(CO)C4CC[C@@]3(C)[C@]1(C)C[C@@H]2O (stereo partly drawn)	3.05%	13.5%	11.9%	-4.59%	9.4%
O=C(O)CCc1ccc(NCc2cccc3c2CCCN3CCOc2ccccc2)cc1F	-27.8%	-7.53%	-4.77%	-52.5%	-10.2%
CC(C)=CCNc1ncnc2c1ncn2[C@@H]1O[C@H](CO)[C@@H](O)[C@H]1O	–	496%	–	397%	139%

Structure (SMILES)	activity change, negative = inhibition [1]	activity change, negative = inhibition [2]	activity change, negative = inhibition [3]	activity change, negative = inhibition [4]	activity change, negative = inhibition [5]
OCCCNc1cc(-c2ccnc(Nc3cccc(Cl)c3)n2)ccn1	-87.5%	-74.2%	-86.9%	-79.6%	-85.3%
COc1cc(C(=O)OC[C@H]2O[C@H](O[C@@]3(CO)O[C@@H](CO)[C@H](O)[C@H]3O)[C@H](O)[C@@H](O)[C@@H]2O)ccc1O	4.36%	8.62%	9.52%	-3.63%	8.1%
COc1ccccc1NC(=O)CSc1nnc2n(CC(C)C)c(=O)c3ccc(Cl)cc3n12	-0.861%	0%	3.07%	1.29%	2.11%
COc1cccc(CN2C(=O)CCCCC2C(=O)NCCc2c[nH]c3ccc(OC)cc23)c1 (stereo not drawn)	-0.81%	-0.105%	0.047%	-8.64%	-6.82%
COC(=O)[C@]1(C)CCC[C@@]2(C)C(=O)CC[C@H]3C(=O)C=C(CC[C@@H]21)C3O (stereo partly drawn)	0%	6.38%	9.17%	-8.38%	1.67%
Clc1cccc(-c2nnnn2Cc2cccnc2)c1Cl	6.88%	3.72%	5.95%	-15.2%	-1.81%
Cc1ccccc1CSc1nnc2n(Cc3ccccc3)c(=O)c3ccc(C(=O)NC(C)C)cc3n12	8.31%	1.39%	7.25%	9.7%	10.8%
Cc1ccc(Cn2c(=O)c3ccc(C(=O)NC(C)C)cc3n3c(=O)n(Cc4ccccc4Cl)nc23)cc1	5.28%	1.23%	8.46%	0.991%	5.44%
COC(=O)c1ncn2c1C(=O)N(Cc1ccccc1OC)C(C)(C(=O)NC1CCCCC1)C2 (stereo not drawn)	-3.14%	1.67%	-1.58%	-9.14%	-0.923%
COC(=O)NCC(=O)N1CC[C@@H]2[C@@H](CCC(=O)N2CCc2ccccc2)C1	-3.65%	-6.13%	-1.63%	-12.7%	-5.03%
CC(=O)OC[C@@]12C(=O)C[C@@H](C)[C@]3(C[C@@H](c4ccoc4)O[C@H]3OC(C)=O)[C@H]1CCC[C@]21CO1	-5.76%	-2.36%	6.85%	-18.2%	-12.4%
O=C(Nc1ccccc1Cl)N1CCC(n2cc(C3CCCC3)nn2)CC1	-2.28%	-4.9%	-1.47%	-5.69%	-3%
COc1ccc(CCN2C(=O)c3ccc(-c4ccco4)n3CC2(C)C(=O)NC2CCCC2)cc1OC (stereo not drawn)	-3.51%	4.25%	0.548%	-34.6%	-7.04%
COc1ccc(C(=O)Cn2nc3n(CCc4ccccc4)c(=O)c4ccccc4n3c2=O)cc1OC	-3.92%	0%	11.6%	-5.15%	-1.04%
CC(C)=CCC/C(C)=C/CO[C@@H]1O[C@H](CO[C@@H]2OC[C@](O)(CO)[C@H]2O)[C@@H](O)[C@H](O)[C@H]1O	1.26%	9.67%	10.2%	-3.21%	8.21%
CCC(CC)Nc1nc(C)c(-c2ccc(OC(F)(F)F)cc2OC)nc1OC	-9.13%	-16.1%	0.751%	-27.6%	-2.41%
C[C@@H]1O[C@@H](O[C@@H]2[C@@H](O)[C@H](O[C@H]3CC[C@@]4(C)C(CC[C@]5(C)C4CC=C4[C@@H]6CC(C)(C)CC[C@]6(C(=O)O[C@@H]6O[C@H](CO)[C@@H](O)[C@H](O)[C@H]6O)CC[C@]45C)C3(C)C)O[C@H](C(=O)O)[C@H]2O)[C@H](O)[C@H](O)[C@H]1O (stereo partly drawn)	2.9%	1.33%	7.26%	-6.56%	6.37%
CC1(C(=O)NC2CCCCC2)Cn2nc(-c3cccs3)cc2C(=O)N1c1ccc(Cl)cc1 (stereo not drawn)	-1.08%	3.89%	5.72%	2.55%	0.092%
Cc1ccc(NC(=O)Cn2nc3n(C(C)C)c(=O)c4ccc(C(=O)NC5CCCC5)cc4n3c2=O)c(C)c1	-1.59%	-3.21%	0.849%	-4.35%	-3.81%
COc1cc(C2Oc3c(OC)cc(/C=C/C(=O)OC4CC(O)(C(=O)O)CC(O)C4O)cc3C2CO)ccc1O (stereo not drawn)	3.24%	8.61%	7.71%	-3.45%	7.01%
CCN1CCN(CCCNC(=O)c2cc3n(n2)CC(C)(C(=O)NCc2ccc(F)cc2)N(C)C3=O)CC1 (stereo not drawn)	-4%	0%	-3.32%	-4.88%	-1.92%
O=C(NC1CCN(CCCCC2(C(=O)NCC(F)(F)F)c3ccccc3-c3ccccc32)CC1)c1ccccc1-c1ccc(C(F)(F)F)cc1	5.09%	-7.45%	-2.28%	-31.7%	-14.8%
CCC(=O)N1CCN(C(=O)c2ccccc2)CC1	2.67%	15%	9.67%	-1.53%	3.09%
COc1ccc(C(=O)CC2(O)C(=O)Nc3c(Cl)ccc(Cl)c32)cc1 (stereo not drawn)	-1.66%	-3.06%	8.56%	-19.1%	-1.49%
COCC(=O)N1CC2(CCCCC2)CC1COc1ccc(OC)cc1 (stereo not drawn)	-9.55%	-9.69%	-4.56%	-17.2%	-8.89%
CC(C)NC(=O)c1cc2n(n1)CC(C)(C(=O)NCc1ccc(F)cc1)N(C)C2=O (stereo not drawn)	4.6%	5.13%	3.61%	-0.711%	0.767%
CC(C)(C)Cn1c(N)nc2ccc(-c3[nH]c(C(C)(C)C)nc3-c3ccc(F)cc3)nc21	-84.8% and -94.1%	-95.1%	-83.5% and -95.2%	-113% and -98.2%	-118% and -98%
